The text below walks through data of paper PMC4336329 (PLoS ONE, 2015).

In all, about 310,000 compounds went through this assay and about 14,000 (4.5%) showed an effect of 50% or more. The effect is printed as a negative number. The list shows a part of the results.
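Also: peak tail current of the secondary pulse compared with the same well before compound.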

The target of the experiment is human ether-à-go-go-related gene (hERG) potassium channel (human, UniProt Q12809). Nature of the experiment: primary screen, population patch clamp on CHO cells stably expressing hERG.
human ether-à-go-go-related gene (hERG) potassium channel, sequence (Q12809 whole entry, looked up): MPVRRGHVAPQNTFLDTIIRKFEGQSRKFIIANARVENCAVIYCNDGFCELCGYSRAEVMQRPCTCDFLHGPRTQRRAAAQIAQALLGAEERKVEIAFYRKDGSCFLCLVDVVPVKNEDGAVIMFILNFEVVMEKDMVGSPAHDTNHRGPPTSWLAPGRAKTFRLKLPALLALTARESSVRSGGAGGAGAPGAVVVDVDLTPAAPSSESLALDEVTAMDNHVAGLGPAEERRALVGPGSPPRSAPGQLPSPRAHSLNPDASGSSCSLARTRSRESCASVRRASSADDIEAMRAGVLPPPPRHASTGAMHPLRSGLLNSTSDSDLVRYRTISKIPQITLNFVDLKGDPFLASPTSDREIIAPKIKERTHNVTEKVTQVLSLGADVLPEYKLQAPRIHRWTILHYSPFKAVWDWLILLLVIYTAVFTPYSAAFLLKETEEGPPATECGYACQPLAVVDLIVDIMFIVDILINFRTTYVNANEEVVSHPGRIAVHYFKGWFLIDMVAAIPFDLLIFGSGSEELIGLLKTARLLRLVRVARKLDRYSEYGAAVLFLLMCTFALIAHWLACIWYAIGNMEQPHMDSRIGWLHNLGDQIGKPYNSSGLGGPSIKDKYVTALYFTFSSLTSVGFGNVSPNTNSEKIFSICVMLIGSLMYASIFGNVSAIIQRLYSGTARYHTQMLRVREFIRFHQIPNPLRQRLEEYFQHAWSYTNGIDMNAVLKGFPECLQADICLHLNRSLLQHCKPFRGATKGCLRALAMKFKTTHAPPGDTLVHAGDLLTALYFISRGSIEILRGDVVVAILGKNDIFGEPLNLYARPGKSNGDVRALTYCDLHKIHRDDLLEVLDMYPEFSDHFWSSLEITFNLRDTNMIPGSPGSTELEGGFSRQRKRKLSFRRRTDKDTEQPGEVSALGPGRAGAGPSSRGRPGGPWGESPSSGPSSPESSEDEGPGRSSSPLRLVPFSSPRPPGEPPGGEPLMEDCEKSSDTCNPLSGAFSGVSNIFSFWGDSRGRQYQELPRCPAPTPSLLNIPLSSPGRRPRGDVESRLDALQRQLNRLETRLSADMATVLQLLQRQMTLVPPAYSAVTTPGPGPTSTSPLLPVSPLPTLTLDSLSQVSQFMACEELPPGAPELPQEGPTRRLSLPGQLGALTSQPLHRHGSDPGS
On to `O=C(CN1CCN(c2ccc(O)cc2)CC1)NC(c1ccccc1)c1ccccc1`, for which the “hERG current change (%, negative = inhibition) at 10uM” value is recorded as -50.8%. For `COc1cc(F)c(C2=CC(=O)C[C@H](c3ccc(F)cc3)C2)cc1F` the value was 21%; for `COc1ccccc1Cn1c(SCC(=O)C(C)(C)C)nc2cc(C(=O)N3CCC4(CC3)OCCO4)ccc2c1=O`, -3.73%; for `COc1ccccc1-n1nnnc1SCC(=O)N(C)C1CCS(=O)(=O)C1` (stereo not drawn), -0.137%.

As for `O=C(/C=C/c1c(F)cccc1Cl)Nc1cccnc1`, the “hERG current change (%, negative = inhibition) at 10uM” value stood at 23.4%. For `C/C(=C\c1ccc(N)cc1)c1nc2ccccc2[nH]1` the value was 3.37%; for `Cc1cc2nc(-c3ccco3)cc(C(F)(F)F)n2n1`, -5.82%. For `CCCn1c(C(C)NS(=O)(=O)c2ccccc2)n[nH]c1=S` (stereo not drawn) the value was 17.7%; for `COc1ccccc1-n1c(N)c(C(N)=O)sc1=S`, 19.3%; for `Cc1ccc(NS(=O)(=O)c2cccc(C(=O)NCC(c3cccs3)N(C)C)c2)cc1` (stereo not drawn), -19.4%. With `CC(C)c1ccc(NC(=S)Nc2ccc(OC(F)(F)F)cc2)cc1.Cl`, the “hERG current change (%, negative = inhibition) at 10uM” value was determined as 17.8%. For `O=C(NCCc1nnc2ccc(NCc3ccc(F)cc3)nn12)c1ccccc1` the value was -29%; for `Cc1oc2cc3oc(=O)c(CCC(=O)NCCCC(=O)O)c(C)c3cc2c1C`, 29.3%.

As to `COc1ccc(CC2S/C(=N/N=C/c3ccc(O)cc3)NC2=O)cc1` (stereo not drawn), the “hERG current change (%, negative = inhibition) at 10uM” value amounted to 2.95%. The result for `C=CCn1c(Cc2ccccc2)n[nH]c1=S` reads 11.7%; that for `N#CCC(=O)N/N=C/c1ccccc1Cl`, 6.55%. For `O=C(NC1CC2CCCC(C1)N2C(=O)Nc1ccccc1)C1CC1` (stereo not drawn) the value was 6.44%; for `Cc1cc(C)nc(SCc2nnc(SCC(=O)Nc3ccc(C)c(C)c3)o2)n1`, -12.1%.

On to `CC(C)(C)NC(=O)c1ccc2c(c1)N(CC(=O)N1CCN(c3ccc(F)cc3)CC1)C(=O)C(C)(C)O2`, for which the “hERG current change (%, negative = inhibition) at 10uM” value is reported as -33.4%. For `CN(CC1CCCO1)S(=O)(=O)c1ccc(C(=O)Nc2ccccc2F)cc1` (stereo not drawn) the value was 2.92%; for `Cc1ccc(-c2nc(NCC3CCCO3)sc2C)cc1` (stereo not drawn), -20.1%; for `CC(C)(C)c1ccc(CSc2ccc(S(=O)(=O)N3CCOCC3)cn2)cc1`, 5.37%. Turning to `O=C(CN1CCN(Cc2ccccc2Cl)C1=O)NCCCN1CCOCC1`, the “hERG current change (%, negative = inhibition) at 10uM” value was 14.6%. The result for `CC(NC(=O)NC1CCCCC1)c1ccc2c(c1)OCO2` (stereo not drawn) reads -3.57%. The result for `Cc1ccccc1NC(=O)Cc1nc(COC(=O)Cc2ccccc2F)cs1` reads -0.00072%; that for `Cc1ccc(C(=O)NCC(=O)O)s1`, 23.8%; that for `CN(C)C(=O)COC(=O)c1ccccc1NC(=O)c1ccco1`, -15.7%. `COC(=O)[C@H]1C[C@@H]1[C@H](NC(=O)[C@H]1C[C@@H]1[C@H](NC(=O)OCc1ccccc1)c1ccccc1)c1ccccc1`: the “hERG current change (%, negative = inhibition) at 10uM” value was -14.2%.

In the case of `CCCCn1c(N)c(N(CCOC)C(=O)c2ccc(-c3cccc(C(F)(F)F)c3)o2)c(=O)[nH]c1=O`, the “hERG current change (%, negative = inhibition) at 10uM” value is -28.8%. For `COc1ccc(CNC(=O)C2CCN(C(=O)c3csc(Nc4ccc(C)cc4)n3)CC2)cc1` the value was -35.8%; for `CN(C)S(=O)(=O)c1cccc(-c2nn(-c3ccccc3)cc2/C=C2\SC(=S)NC2=O)c1`, 20.1%; for `CN(C(=O)c1cccnc1)c1nc(-c2ccccc2)cs1`, 7.66%. In the case of `CS(=O)(=O)N(CC(=O)NCc1ccc2c(c1)OCO2)c1cccc(Cl)c1`, the “hERG current change (%, negative = inhibition) at 10uM” value was -22.3%. For the molecule `O=C(c1cn(Cc2ccccc2)nc1-c1cccnc1)N1CCc2ccccc2C1`, the “hERG current change (%, negative = inhibition) at 10uM” value was -40.6%. As for `NC(=O)c1nsc(C(=O)N(c2cccc(F)c2)C(C(=O)NCC2CCCO2)c2c[nH]c3ccccc23)c1N` (stereo not drawn), the “hERG current change (%, negative = inhibition) at 10uM” value is reported as 9.95%. Consider `COc1ccccc1NC(=O)C(C)N(C)Cc1ccc(Cl)s1` (stereo not drawn), for which the “hERG current change (%, negative = inhibition) at 10uM” value amounted to 19.4%. On to `O=C(N/N=C/c1cccs1)C1CC(=O)N(c2ccccc2)C1` (stereo not drawn), for which the “hERG current change (%, negative = inhibition) at 10uM” value is on record as -8.24%. On to `CN1CCN(C(c2ccccc2)c2ccc(Cl)cc2)CC1.Cl` (stereo not drawn), for which the “hERG current change (%, negative = inhibition) at 10uM” value is listed as -60.9%. For `COc1ccc2c(c1)C(c1ccc(C)o1)=NNC(c1ccccc1)=N2`, the “hERG current change (%, negative = inhibition) at 10uM” value was found to be 5.95%. In the case of `Nc1nc(N)nc(Cc2ccccc2O)n1`, the “hERG current change (%, negative = inhibition) at 10uM” value is 2.65%. Regarding `O=S1(=O)CCC(n2nccc2-c2ccccc2)C1` (stereo not drawn), the “hERG current change (%, negative = inhibition) at 10uM” value is reported as 5.87%. As to `S=C(Nc1ccc(Cl)cc1Cl)N1CCCCC1`, the “hERG current change (%, negative = inhibition) at 10uM” value is reported as -11.2%.

Turning to `Cc1nnc(NC(=O)CSCc2ccccc2)s1`, the “hERG current change (%, negative = inhibition) at 10uM” value came out at 12.9%.

Consider `COc1cc(OC)c(-c2nn3c(C4CCCCC4)nnc3s2)cc1OC`, for which the “hERG current change (%, negative = inhibition) at 10uM” value is recorded as -5.29%. Turning to `CCCCCn1c(CNC(=O)c2cccs2)nc2ccccc21`, the “hERG current change (%, negative = inhibition) at 10uM” value is -18.6%.
